According to the supplement of paper PMC10126150:
Sequences with one replicate were seen in a single cluster, so their values are uncertain.

Tested on: ATP
Experiment: switch fluorescence ratio, 500 uM ATP over buffer (Cy3 cluster intensity, sum of 5 cycles each) (fold (ratio)); higher = stronger signal-on switching upon ATP binding; sequences stand for … in TCGTCGGCAGCGTCAGATGTGTATAAGAGACAGTTTTTTTTTTTTTTTTTTTTTTTTT…TC
Conditions: aptamer strand: ATP DNA aptamer (quencher-CACCTGGGGGAGTATTGCGGAGGAAGG + anchor), 100 nM annealed; ATP concentration: 500 uM; one replicate
Outline: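 Per cluster, summed Cy3 intensity from the target cycles was divided by that from the buffer cycles to give the fluorescence ratio, then averaged per switch-domain sequence. Clusters outside 100-1000 RFU were excluded. The Cy3-labelled switching-strand clusters, on a modified Illumina MiSeq flow-cell, were annealed to 100 nM quencher-labelled ATP aptamer and imaged in selection buffer, then after 15 min with 500 uM ATP at 22 °C, for five cycles with NaOH stripping and re-annealing between them.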
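Note: ATP exposure 15 min at 22 °C before imaging.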

Row | Sequence | switch fluorescence ratio
1 | AAACGACTAT | 1.01
2 | TGTAACATGT | 0.997
3 | CCTAATTCCA | 0.968
4 | ATCCACAGAG | 1.08
5 | TACTAATGAA | 1.12
6 | GCTGATTTTC | 0.999
7 | CGCATTTTTG | 1.08
8 | ATTGTGCTCC | 1.03
9 | TCCTCGGCCT | 2.24
10 | ACGCCGGGCG | 0.971
11 | GGCTCCGGTG | 1.21
12 | CCCAACGTAG | 1.03
13 | AACTCGCGAA | 1.09
14 | TGGGAGGTAA | 1.17
15 | ACCTGACGGA | 1.57
16 | CCCTTCTGCA | 1.06
17 | GCTCTTATAG | 0.985
18 | TCCCTCGATT | 0.997
19 | CTCCACATTT | 1.64
20 | TGTTGGTGCG | 1.01
21 | GCTGTAGGGT | 1.04
22 | TCACGAAGTA | 0.974
23 | ACCCATGGGC | 1
24 | CACTAGCCA | 1.04
25 | TGAATTGTCA | 0.994
26 | TTACTTACAA | 1.09

Row | Sequence | switch fluorescence ratio
27 | TCCCCAGTGT | 1.21
28 | TAGTTTCTTT | 0.972
29 | CTTGGTGGCA | 1.01
30 | ACTTGGACTA | 1.08
31 | TCGAGCGAGC | 1.03
32 | GCAACTGTTT | 1.1
33 | TAGTCTGTTT | 1.02
34 | CGGTAGCTGG | 0.988
35 | CGAGATCTAT | 0.979
36 | CTAGGCGGTA | 1.08
37 | CGATATTTGC | 1.03
38 | CACATTGAGC | 1.02
39 | ACAAATCCGG | 0.994
40 | ATGTTAAACT | 1.06
41 | TGACCGAGGG | 1.02
42 | TGGACCTAGC | 1.06
43 | GTTTCGATTA | 0.967
44 | TCATTAACAT | 0.978
45 | TGAAGCACGT | 1.1
46 | GCTTCTACAT | 0.97
47 | AATTATGAGA | 0.989
48 | ATCTAGCCAG | 0.983
49 | TGAGGCTGAG | 1.02
50 | GGGCCAGCAA | 1.43
51 | ATCTATTGCG | 1.03
52 | CACTGAGC | 0.992

Row | Sequence | switch fluorescence ratio
53 | CTCCCCACCC | 1.3
54 | GTGGGGCTAA | 1.02
55 | TGCGACGGAT | 1.13
56 | GTTGACCGTA | 1.17
57 | AAATTGGATG | 0.972
58 | AGTGTCAATC | 1.04
59 | TGTACCCTGT | 1.04
60 | GAGACTGGTG | 1.01
61 | TTTTTGGAAG | 0.985
62 | ACGTGTACCA | 1.2
63 | TTTGGAACGG | 1.05
64 | AATTATCGGG | 0.97
65 | TTAGAGATCA | 1.13
66 | GTGGGGCGAA | 0.987
67 | TGGCGCCAGT | 0.987
68 | TTAGCAAATT | 1.8
69 | TATCTTGGAG | 0.988
70 | CTCGAGCAAG | 2.33
71 | AGCCAACTGG | 1.02
72 | GCTGGCCGGG | 1.01
73 | GACATGGCCG | 1.06
74 | GTAGGGTGAT | 1.01
75 | CGTGGAGAG | 1.04
76 | ACGGAGAAAA | 1.03
77 | CCTACATTGC | 1.88
